Experimental data: PubChem BioAssay AID588591 (National Center for Advancing Translational Sciences (NCATS), 2011)
Screen size: about 390,000 compounds; about 4,700 (1.2%) were called active. This list was built around the results that the source calls inconclusive (neither active nor inactive); the mix of calls is not that of the screen. Calls come from the whole dose curve; as a rule, active = well fitted inhibition curve with a large enough effect; inconclusive = small, poorly fitted or top-dose-only effect, or another doubt; inactive = no such curve, though single readings can be large or run the other way. Where the call is inconclusive, the potency comes from a doubtful curve fit.

These compounds were tested against DNA polymerase eta (Homo sapiens) (UniProt Q9Y253) (assay: qHTS for Inhibitors of Polymerase Eta). Details: recombinant Pol eta, fluorescent DNA replication assay; series mostly up to 114 µM.
Sequence of UniProt Q9Y253 (Q9Y253 whole entry, looked up): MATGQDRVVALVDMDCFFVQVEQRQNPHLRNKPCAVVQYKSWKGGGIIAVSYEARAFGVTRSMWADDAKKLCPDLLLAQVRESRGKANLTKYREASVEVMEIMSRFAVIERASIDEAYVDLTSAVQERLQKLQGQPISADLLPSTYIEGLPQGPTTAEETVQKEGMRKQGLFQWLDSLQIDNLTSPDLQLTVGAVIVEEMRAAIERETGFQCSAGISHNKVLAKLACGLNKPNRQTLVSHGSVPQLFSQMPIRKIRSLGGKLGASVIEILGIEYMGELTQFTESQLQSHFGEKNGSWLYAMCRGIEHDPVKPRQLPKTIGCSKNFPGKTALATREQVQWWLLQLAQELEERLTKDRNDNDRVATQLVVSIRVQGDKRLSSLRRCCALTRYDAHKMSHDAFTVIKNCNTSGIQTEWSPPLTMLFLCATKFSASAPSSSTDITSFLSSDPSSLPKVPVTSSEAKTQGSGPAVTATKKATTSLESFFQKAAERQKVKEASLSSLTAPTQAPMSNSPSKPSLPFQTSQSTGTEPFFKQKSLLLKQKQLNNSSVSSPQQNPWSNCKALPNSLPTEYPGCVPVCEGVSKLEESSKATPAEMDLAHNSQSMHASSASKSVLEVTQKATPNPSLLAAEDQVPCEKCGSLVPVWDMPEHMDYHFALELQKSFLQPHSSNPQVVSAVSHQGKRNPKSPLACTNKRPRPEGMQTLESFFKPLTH
Procedure, shortened: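 Pol eta at 10 nM preincubated with compounds 15 min at room temperature; reaction started with fluorescent substrate (50 nM final) and read kinetically at 0 and 10 min.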
Potency is the fitted concentration of half-maximal effect; tags give direction and shape of the fitted curve.

Compound	Potency
CCOc1ccc(OCC)c(NC(=O)c2csc3c2CCCC3)c1	inactive
CC(=O)Nc1ccc2nc(SCC(=O)NCCOc3ccccc3)sc2c1	inactive
O=c1[nH]c(/C=C/c2ccc(Cl)cc2Cl)c([N+](=O)[O-])c(=O)[nH]1	active: 20 µM
CCSc1nnc(NC(=O)Cn2cnc3c2c(=O)n(C)c(=O)n3C)s1	inactive
O=C(NN(CC(O)COc1ccccc1)CC(O)COc1ccccc1)c1ccccc1 (stereo not drawn)	inactive
Cc1c(C#N)c(=O)oc2ccc3ccccc3c12	inconclusive: 11.2 µM [inhibitor, full curve, poor fit]
O=C(CSc1nnc(-c2ccncc2)n1-c1ccc(F)cc1)NC(=O)NCc1ccco1	active: 79.4 µM
CC(=O)Nc1ccc(S(=O)(=O)Nc2cc([N+](=O)[O-])ccc2C)cc1	inactive
O=C1C=C(O)CC(c2ccco2)C1 (stereo not drawn)	active: 3.16 µM
FC(F)(F)c1cnc(N2CCC(=NOCc3ccc(Cl)cc3)CC2)c(Cl)c1	inactive
O=S(=O)(Nc1ccc(-c2ccc(N3CCCC3)nn2)cc1)c1ccc(OC(F)(F)F)cc1	inactive
O=C(CCN1C(=O)c2ccccc2C1=O)NCc1ccco1	inconclusive: 100 µM [inhibitor, partial curve, poor fit]
COc1cc(OC)cc(C(=O)Nc2ccc(NC(=O)c3ccco3)c(Cl)c2)c1	inconclusive: 70.8 µM [inhibitor, partial curve]
CC1=CC(=O)c2ccccc2C1=O	inconclusive: 89.1 µM [inhibitor, single point]
S=c1[nH]nc(-c2ccncc2)n1/N=C/C=C/c1ccco1	active: 28.2 µM
CCN(CC)Cc1c(O)ccc2c1O/C(=C\C=C\c1ccccc1)C2=O	inconclusive: 79.4 µM [inhibitor, partial curve, poor fit]
COc1ccc(C2CC(c3ccc(OC)cc3OC(C)=O)=NN2C(=O)c2ccccc2)cc1 (stereo not drawn)	inconclusive: 79.4 µM [inhibitor, partial curve, poor fit]
O=C1COC(c2ccccc2)C2CCCCN12 (stereo not drawn)	inactive
CCc1ccc(-n2nc(C)c3c(C(=O)N4CCN(c5cccc(Cl)c5)CC4)cc(C)nc32)cc1	inconclusive: 17.8 µM [inhibitor, partial curve, poor fit]
CCCN(CCC)S(=O)(=O)c1cc(Br)cc2c1N(C(=O)CC)CC2	inconclusive: 31.6 µM [inhibitor, single point]
O=C(COC(=O)c1ccc2c(c1)OCCO2)Nc1ccc(F)cc1F	inconclusive: 89.1 µM [inhibitor, partial curve, poor fit]
Cc1oc2cc([N+](=O)[O-])c(O)c([N+](=O)[O-])c2c1C(=O)c1ccc(Br)cc1	inconclusive: 89.1 µM [inhibitor, partial curve]
Cc1cccc(C(=O)Nc2sc(-c3ccccc3)cc2C(=O)O)c1	inconclusive: 79.4 µM [inhibitor, partial curve]

Compound	Potency
O=C(CSc1nc2c([nH]c3ccccc32)c(=O)n1-c1ccccc1)N1CCCCCC1	inconclusive: 89.1 µM [inhibitor, single point]
CSc1ccccc1NC(=O)CN(C1CCCCC1)S(C)(=O)=O	inactive
C=CC[C@@H](CC(=O)NCCO)C(=O)N[C@@H](C)COC(=O)[C@H](CC=C)CC(=O)OC(C)(C)C	inactive
CCCc1cc(=O)[nH]c(SCC(=O)Nc2cc(S(=O)(=O)N3CCCCC3)ccc2Cl)n1	inconclusive: 20 µM [inhibitor, partial curve, poor fit]
COc1ccc(C(C)NC(=O)Cc2cccs2)cc1OC (stereo not drawn)	inconclusive: 22.4 µM [inhibitor, partial curve, poor fit]
Cc1cc(N=Cc2c(O)n(-c3cccc(Cl)c3)c(=O)c3ccccc23)no1	inconclusive: 17.8 µM [inhibitor, full curve, poor fit]
O=C(O)c1cc(/C=C/C(=O)c2cc(F)ccc2O)c2c(c1)COCO2	active: 22.4 µM
COc1ccc(-c2nnc(SCC(=O)N(C)Cc3ccccc3)o2)cc1OC	active: 79.4 µM
Cc1ccc2cccc(N=Cc3c(C)[nH]n(-c4ccccc4)c3=O)c2n1	inconclusive: 14.1 µM [inhibitor, partial curve, poor fit]
O=C(NCc1ccccc1C(F)(F)F)c1cccc2c1C(=O)c1ccc(N3CCOCC3)cc1S2(=O)=O	inconclusive: 22.4 µM [inhibitor, full curve]
CN(C)S(=O)(=O)c1cccc(NC(=S)N/N=C/c2ccc(O)c(O)c2O)c1	inconclusive: 1.58 µM [inhibitor, partial curve, poor fit]
Brc1ccccc1-c1nnc(CSc2nncn2-c2ccccc2)o1	inconclusive: 22.4 µM [inhibitor, partial curve, poor fit]
Clc1cccc(N/N=C/c2ccc(N3CCOCC3)cc2)c1	inconclusive: 1.12 µM [inhibitor, partial curve, poor fit]
COc1ccc(-n2nnnc2SCC(=O)Nc2ccc3c(c2)OCCO3)cc1OC	inconclusive: 20 µM [inhibitor, partial curve, poor fit]
Cc1cccc(Oc2ccc3c(c2)Oc2ccccc2NC3=O)c1	active: 50.1 µM
O=C(O)c1cccc(-n2cccc2/C=C2/SC(=O)N(CC(=O)N3CCCC3)C2=O)c1	active: 5.01 µM
COC(=O)c1cc(C#N)c(NCc2ccccc2)nc1C	inconclusive: 63.1 µM [inhibitor, partial curve, poor fit]
O=C(N/N=C/c1cccnc1)c1cc2c(ccc3ccccc32)o1	inconclusive: 14.1 µM [inhibitor, partial curve]
CC(Cc1ccc(O)c(O)c1)C(C)Cc1ccc(O)c(O)c1 (stereo not drawn)	active: 28.2 µM
N#Cc1cccc(OC(=O)c2ccc3c(=O)n4c(nc3c2)CCC4)c1	inconclusive: 20 µM [inhibitor, full curve, poor fit]
O=C(COC(=O)C1CC1)Nc1ncc(Cl)cc1Cl	active: 28.2 µM
O=Cc1cccn1-c1sc2c(c1C(=O)O)CCCC2	inconclusive: 28.2 µM [inhibitor, single point]
O=C(/C=C/c1cccc([N+](=O)[O-])c1)c1cccs1	inconclusive: 20 µM [inhibitor, partial curve, poor fit]

Compound	Potency
Cc1ccc(CNc2cc(C)nc3nc(-c4cccc(C)c4)nn23)cc1	inconclusive: 44.7 µM [inhibitor, partial curve, poor fit]
Cc1cccc2nc(CSc3nc4[nH]ncc4c(=O)n3-c3cccc(Cl)c3)cc(=O)n12	inconclusive: 35.5 µM [inhibitor, partial curve, poor fit]
Cc1ccc(NS(=O)(=O)Cc2ccccc2)nc1	inconclusive: 100 µM [inhibitor, single point]
Cc1cc(NC(=O)CSc2nnc(NC(=O)C3CC(=O)N(c4ccccc4C)C3)s2)no1 (stereo not drawn)	inconclusive: 39.8 µM [inhibitor, single point]
COc1ccc(CNC(=O)COC(=O)CCOc2ccc(C)cc2)cc1OC	inconclusive: 3.98 µM [inhibitor, partial curve, poor fit]
COc1ccc(NC(=O)CSc2nc(-c3ccco3)nc3cc(=O)[nH]n23)cc1Cl	inconclusive: 79.4 µM [inhibitor, partial curve]
CC(=O)OCC1=C(C(=O)O)N2C(=O)C(NC(=O)c3ccc(COc4cccc(Cl)c4Cl)o3)C2SC1 (stereo not drawn)	active: 22.4 µM
COc1ccc(OC)c(Nc2nc(NCCCN(C)C)nc(N)c2[N+](=O)[O-])c1	active: 50.1 µM
COc1ccc(OC)c(NC(=O)CSc2nc3[nH]c(=O)cc(O)c3s2)c1	inconclusive: 79.4 µM [inhibitor, partial curve]
CCc1ccc(-n2nc(CO)c(C(=O)NCc3ccccc3OC)n2)cc1	inactive
O=C(O)c1ccc(COc2ccccc2/C=C2\NC(=O)N(Cc3ccc(F)cc3)C2=O)cc1	inconclusive: 79.4 µM [inhibitor, single point]
COCCNC(=S)N(CCc1c(C)[nH]c2ccc(OC)cc12)Cc1ccco1	inconclusive: 89.1 µM [inhibitor, partial curve, poor fit]
Cc1cc(C)c2sc(NC(=O)c3ccc([N+](=O)[O-])o3)nc2c1	inconclusive: 39.8 µM [inhibitor, partial curve, poor fit]
Fc1ccc(NC(=S)NC23CN4CN(CN(C4)C2)C3)cc1	inconclusive: 79.4 µM [inhibitor, partial curve, poor fit]
COc1ccc(-c2n[nH]c(C)c2-c2ccc(Cl)cc2)c(O)c1	inconclusive: 22.4 µM [inhibitor, partial curve, poor fit]
CC(=O)Nc1ccc(S(=O)(=O)Nc2ccc(S(=O)(=O)Nc3nccs3)cc2)cc1	inactive
Cc1ccc2nc(-c3ccc(NC(=O)CN4CCN(C(=O)c5ccco5)CC4)cc3)sc2c1	active: 79.4 µM
CCc1ccc(NS(=O)(=O)c2ccc3[nH]cc(C(=O)N(C)Cc4ccco4)c(=O)c3c2)cc1	active: 89.1 µM
Cc1cc2c(c(C#N)c1C)NC=NC2C (stereo not drawn)	inactive
CCC1CCCCN1CCCNC(=O)CCCOc1cc(=O)n(C)c2ccccc12 (stereo not drawn)	inactive
Cc1ccc(S(=O)(=O)N2CCOCC2)cc1C(=O)N1CCC(Cc2ccccc2)CC1	inconclusive: 89.1 µM [inhibitor, partial curve, poor fit]
CCOC(=O)N1CCN(C(=O)c2ccc3c(c2)N=C(C)c2cc(Cl)ccc2S3)CC1	inconclusive: 79.4 µM [inhibitor, partial curve, poor fit]
